The whole screen tested about 350,000 compounds, of which about 31,000 (8.9%) were called active. Inconclusive means that the source gave no clear call. Such entries were picked first, then a sample of the others. Calls come from the whole dose curve; as a rule, active = well fitted inhibition curve with a large enough effect; inconclusive = small, poorly fitted or top-dose-only effect; inactive = no such curve, though single readings can be large or run the other way. Potencies of inconclusive entries are doubtful fits and often do not repeat.
biological target: Histone-lysine N-methyltransferase EHMT2 (Homo sapiens) (UniProt Q96KQ7); assay: qHTS Assay for Inhibitors of Histone Lysine Methyltransferase G9a; settings: G9a H3K9 monomethylation, AlphaScreen, 2 h; activity, negative = inhibition: at 59 µM (top of the series) unless noted; note: nearly all actives have a fitted effect of over 75% in size
UniProt Q96KQ7, sequence (Q96KQ7 whole entry, looked up): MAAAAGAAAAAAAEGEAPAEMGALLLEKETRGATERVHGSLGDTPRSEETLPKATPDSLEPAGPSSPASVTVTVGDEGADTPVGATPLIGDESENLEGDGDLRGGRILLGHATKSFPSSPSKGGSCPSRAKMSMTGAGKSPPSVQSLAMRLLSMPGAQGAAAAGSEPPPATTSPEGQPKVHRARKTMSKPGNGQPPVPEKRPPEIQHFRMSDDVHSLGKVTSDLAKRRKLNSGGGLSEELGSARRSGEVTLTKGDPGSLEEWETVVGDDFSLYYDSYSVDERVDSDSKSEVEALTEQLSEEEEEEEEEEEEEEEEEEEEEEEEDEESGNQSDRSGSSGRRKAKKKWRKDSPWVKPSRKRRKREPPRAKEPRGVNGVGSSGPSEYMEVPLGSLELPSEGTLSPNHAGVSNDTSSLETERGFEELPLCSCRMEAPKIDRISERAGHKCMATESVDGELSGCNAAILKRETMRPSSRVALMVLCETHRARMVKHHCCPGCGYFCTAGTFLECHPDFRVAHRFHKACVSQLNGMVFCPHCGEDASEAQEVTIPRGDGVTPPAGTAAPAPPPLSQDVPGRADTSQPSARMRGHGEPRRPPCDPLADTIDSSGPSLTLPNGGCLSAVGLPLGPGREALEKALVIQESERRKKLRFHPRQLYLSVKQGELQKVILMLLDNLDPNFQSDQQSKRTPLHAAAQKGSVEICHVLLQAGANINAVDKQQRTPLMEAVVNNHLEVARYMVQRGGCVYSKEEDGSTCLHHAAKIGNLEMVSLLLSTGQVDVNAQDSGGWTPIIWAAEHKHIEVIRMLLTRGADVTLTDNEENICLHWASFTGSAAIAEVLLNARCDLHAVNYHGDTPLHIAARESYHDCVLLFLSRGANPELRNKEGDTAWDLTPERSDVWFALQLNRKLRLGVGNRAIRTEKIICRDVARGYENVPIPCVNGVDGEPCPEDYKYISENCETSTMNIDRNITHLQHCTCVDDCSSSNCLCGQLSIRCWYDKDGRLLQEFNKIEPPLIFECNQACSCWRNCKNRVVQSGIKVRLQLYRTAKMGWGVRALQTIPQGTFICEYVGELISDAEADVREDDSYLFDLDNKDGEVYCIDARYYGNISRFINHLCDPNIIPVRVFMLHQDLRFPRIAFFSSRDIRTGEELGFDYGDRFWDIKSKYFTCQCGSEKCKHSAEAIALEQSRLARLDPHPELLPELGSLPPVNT
Outline: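 G9a (20 nM) preincubated 15 min RT with compounds, then 500 nM biotinylated H3K9 peptide and 20 uM SAM added; 2 h RT reaction. Monomethyl-H3K9 product detected by AlphaScreen with anti-H3K9me1 antibody, streptavidin donor and anti-rabbit IgG acceptor beads.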
% is set by controls: 0 for no effect and ±100 for the full control effect; potency is the fitted concentration of half-maximal effect; tags give direction and shape of the fitted curve.

SMILES	Potency	activity, negative = inhibition
Cc1cc(OCC(=O)c2ccc(Br)cc2)ccc1N1C(=O)CCC1=O	inconclusive: 79.4 µM [inhibitor, single point]	–
O=C(NCc1cccc(Cl)c1)c1cccc(S(=O)(=O)N2CCCCC2)c1	–	inactive: 9.95% [at 12.7 µM]
CNC(=S)N1CCN(c2c(F)cc3c(=O)c(C(=O)O)cn(C4CC4)c3c2OC)CC1C (configuration not stated)	inconclusive: 89.1 µM [inhibitor, single point]	–
CC1CCC(NC(=O)c2ccc3c(c2)N(Cc2cccc(F)c2)C(=O)c2ccccc2S3)CC1 (configuration not stated)	–	inactive: -6.31%
C/C(CC(=O)Nc1ccc2ccccc2c1)=N\NC(=O)c1cnccn1	inconclusive: 70.8 µM [inhibitor, single point]	–
COc1ccc(-c2noc(C3CC(=O)N(c4ccc(C)c(F)c4)C3)n2)c(OC)c1 (configuration not stated)	–	inactive: -1.14%
Cc1ccc2c(c1)c(C)c(C)n2CC(O)CN1CCCCC1C (configuration not stated)	inconclusive: 89.1 µM [inhibitor, single point]	–
COc1ccc(NC(=O)Nc2ccc(OCc3ccccc3)cc2)cn1	inconclusive: 89.1 µM [inhibitor, single point]	–
COc1ccc(S(=O)(=O)NCc2ccncc2)cc1NC(=O)c1ccccc1F	–	inconclusive: -56.9% [inhibitor] [at 2.33 µM]
CC(C)CC(=O)OC1C(N2CCOCC2)c2c(ccc(/C=C/C(=O)N3CCOCC3)c2O)OC1(C)C (configuration not stated)	inconclusive: 39.8 µM [inhibitor, single point]	–
Cc1cccc(NC(=O)C2CCN(C(=O)[C@@H]3Cc4ccccc4CN3)CC2)c1	inconclusive: 89.1 µM [inhibitor, partial curve, poor fit]	–
Cc1cccn2c(=O)c(/C=C(\C#N)C(N)=O)c(N3CCN(Cc4ccc5c(c4)OCO5)CC3)nc12	inconclusive: 79.4 µM [inhibitor, single point]	–
Fc1ccc(-c2cc(-c3nc(-c4cccc(Cl)c4)no3)[nH]n2)cc1	–	inactive: 9.63%
Clc1ccc(-c2nc3ccncc3[nH]2)cc1	inconclusive: 1.78 µM [inhibitor, full curve, poor fit]	–
c1ccc(CNc2nc(NCc3ccccc3)c3ccccc3n2)cc1	inconclusive: 39.8 µM [inhibitor, partial curve]	–
CC(C)CCN(C(=O)C1=COCCO1)c1c(N)n(Cc2ccccc2)c(=O)[nH]c1=O	inconclusive: 50.1 µM [inhibitor, partial curve]	–
CCOC(=O)c1cc(NC(=O)c2ccccc2)c(=O)oc1C(F)(F)F	inconclusive: 56.2 µM [inhibitor, partial curve]	–
Cc1nc(N/N=C/c2ccccn2)sc1C	inconclusive: 100 µM [inhibitor, single point]	–
CCOC(=O)c1[nH]c2ccc(OCC)cc2c1NC(=O)CN1CCC2(CC1)OCCO2	inconclusive: 0.1 µM [inhibitor, full curve, poor fit]	–
O=C(NCCN1CCCCC1)c1c(O)c2ccccc2[nH]c1=O	inconclusive: 50.1 µM [inhibitor, partial curve, poor fit]	–
O=C(COc1ccc(Cl)cc1)Nc1ccc2c(c1)OCO2	–	inactive: 18.4% [at 102 µM]

SMILES	Potency	activity, negative = inhibition
COc1cc2c(cc1OC)C(COc1ccc3c(C)cc(=O)oc3c1)N(C(=O)Cc1ccccc1)CC2 (configuration not stated)	–	inactive: 22.5%
CC(=O)Nc1cc(NC(C)=O)cc(C(=O)OCC(=O)c2ccc3c(c2)OCO3)c1	active: 10 µM	–
CCN(C(=O)CCc1nc(-c2ccc(C)cc2)no1)c1cccc(Cl)c1	–	inactive: 28.4%
COc1ccc(CC(=O)OCc2cc3ccc(C)cc3[nH]c2=O)cc1	inconclusive: 31.6 µM [inhibitor, single point]	–
OCCN1CCN(c2cc(-c3ccccc3)c3ccccc3n2)CC1	inconclusive: 6.31 µM [inhibitor, full curve, poor fit]	–
Cc1csc(Nc2cccc3ccccc23)n1	active: 44.7 µM	–
Cc1ccccc1NC(=O)c1nc(S(C)(=O)=O)ncc1N(Cc1ccco1)Cc1sccc1C	inconclusive: 17.8 µM [inhibitor, partial curve, poor fit]	–
S=c1[nH]nc(-c2cccc(Cl)c2)n1CCN1CCCCC1	inconclusive: 31.6 µM [inhibitor, single point]	–
Cc1[nH]c2ccccc2c1CCNC(=O)c1c(N)no[n+]1[O-]	inconclusive: 50.1 µM [inhibitor, partial curve, poor fit]	–
CCOC(=O)C1=NNC(C(=O)c2ccc(Cl)cc2)C1c1ccc(OC)cc1 (configuration not stated)	inconclusive: 50.1 µM [inhibitor, partial curve]	–
N#Cc1c(-c2ccco2)cc(-c2ccc(F)cc2)nc1N	inconclusive: 1.41 µM [inhibitor, single point]	–
Cc1cc(C)n(-c2nc3ccccc3n3nnnc23)n1	inconclusive: 1 µM [inhibitor, full curve, poor fit]	–
CN(CC(=O)Nc1ccc(F)c(F)c1F)C(=O)C1=NN(c2ccccc2)C(=O)CC1	inconclusive: 39.8 µM [inhibitor, single point]	–
COc1cccc(CNC(=O)c2ccc3nc(-c4ccccc4)c(-c4ccccc4)nc3c2)c1OC	–	inactive: 3.19%
Cc1cc(Br)c(OCc2ccc(C(=O)N/N=C3\CC4CC=CC34)cc2)c(Br)c1 (configuration not stated)	–	inactive: 16.6%
N#Cc1nc(-c2ccccc2Cl)oc1NCc1ccco1	–	inconclusive: -86.3% [inhibitor]
COc1ccccc1/C=C/C=C1N=C(/C=C/c2ccc(Cl)cc2)OC/1=O	inconclusive: 39.8 µM [inhibitor, single point]	–
COC(=O)c1ccc(CS(=O)(=O)c2ccc(C)cc2)o1	inconclusive: 56.2 µM [inhibitor, partial curve, poor fit]	–
O=C(c1ccc(Cl)cc1)N1C2C=CC(C2)C1(C(F)(F)F)C(F)(F)F (configuration not stated)	–	inactive: -3.8% [at 102 µM]
CC(C)C[C@H](N)c1nnc(S(=O)(=O)Cc2ccc(F)cc2)o1	inconclusive: 39.8 µM [inhibitor, partial curve, poor fit]	–
CC1CCN(c2oc(Cc3cccc4ccccc34)nc2C#N)CC1	active: 8.91 µM	–
